# In the supplement of paper PMC8728848:
# The list shows a part of the results.
# B1: PX14343B-bfa-546-20-546 (Bacteroides fragilis) (protein)
# chain: CDLERYPLTDLSEETFWNSESNAELALTSLYRGSLTDGVEYNPSDWWSYHGMIMMEHLSDNAFDRRGENNPFFKISSGNLTADNAFIKRYWETSYKRIGYCNRFLVGIQNSSESEKKTRMIAEARFLRATQYFYLASYFKNVPLVENVLTGEEANNVTKTSQADILKWCVTEFTAAAADLPRFSAIPAGEAGRACKQAALAFLGRTCMLQKDWKSGAKAFHDIMELGDNAINANYQELFYPSTGTSNKENIFYIQYLENYLGTGLPQHALSAKDGGWSLVNPAADLYESYEFKDGTPFSYDDPRYDPSNLGKDRDPRLDYTIYYNGAIFMGTEYKMSPDYSAAKKEKLDYTSEASRTGFMMRKYFEESTPINDVQSANGLTPVIRYAEVLLGYLECLVEDNQTITQGILDETINAVRGRASVNMPPVTEVTPAKLREIVRHERRIELAMEGIRYWDIMRWGIAHEVLSQKIWGAPYPGSTQYATTTKEVDPTGNYRWYVGKRAFRNPTDYTWPIPQSEQNINPNLRD
# Assays:
# Assay in all cases: glycan array binding signal (z-score within array); higher = stronger binding
# Details in all cases: glycan notation: IUPAC condensed, linker removed
# Kdn(a2-3)Gal(b1-4)Glc = molecular target: Kdn(a2-3)Gal(b1-4)Glc
# How it was run: (§1)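 The binding signal is a Z-score computed within each array and averaged over linkers. Arrays of the same protein sequence at different concentrations or buffers were also averaged together. Data originate from 3228 arrays in the Consortium for Functional Glycomics database, kept only where the protein sequence was available.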
# Kdn(a2-3)Gal(b1-4)GlcNAc = molecular target: Kdn(a2-3)Gal(b1-4)GlcNAc
# How it was run: as §1
# [1] = molecular target: Kdn(a2-3)Gal(b1-4)[Fuc(a1-3)]GlcNAc
# How it was run: as §1
# Kdn(a2-6)Gal(b1-4)GlcNAc = molecular target: Kdn(a2-6)Gal(b1-4)GlcNAc
# How it was run: as §1
# [2] = molecular target: Man(a1-2)Man(a1-2)Man(a1-3)Man
# How it was run: as §1
# [3] = molecular target: Man(a1-2)Man(a1-2)Man(a1-6)[Man(a1-3)]Man
# How it was run: as §1
# Man(a1-2)Man(a1-3)Man = molecular target: Man(a1-2)Man(a1-3)Man
# How it was run: as §1
# [4] = molecular target: Man(a1-2)Man(a1-3)[Man(a1-2)Man(a1-6)]Man
# How it was run: as §1
# [5] = molecular target: Man(a1-2)Man(a1-3)[Man(a1-2)Man(a1-6)]Man(a1-6)[Man(a1-2)Man(a1-2)Man(a1-3)]Man
# How it was run: as §1
# [6] = molecular target: Man(a1-2)Man(a1-3)[Man(a1-2)Man(a1-6)]Man(a1-6)[Man(a1-2)Man(a1-2)Man(a1-3)]Man(b1-4)GlcNAc(b1-4)GlcNAc
# How it was run: as §1
# [7] = molecular target: Man(a1-2)Man(a1-3)[Man(a1-6)]Man(a1-6)[Man(a1-2)Man(a1-3)]Man(b1-4)GlcNAc(b1-4)GlcNAc
# How it was run: as §1
# [8] = molecular target: Man(a1-2)Man(a1-6)[Man(a1-3)]Man(a1-6)[Man(a1-2)Man(a1-2)Man(a1-3)]Man
# How it was run: as §1
# [9] = molecular target: Man(a1-2)Man(a1-6)[Man(a1-3)]Man(a1-6)[Man(a1-2)Man(a1-2)Man(a1-3)]Man(b1-4)GlcNAc(b1-4)GlcNAc
# How it was run: as §1
# Man(a1-3)[Man(a1-6)]Man = molecular target: Man(a1-3)[Man(a1-6)]Man
# How it was run: as §1
# [10] = molecular target: Man(a1-3)[Man(a1-6)]Man(a1-6)[Man(a1-2)Man(a1-3)]Man(b1-4)GlcNAc(b1-4)GlcNAc
# How it was run: as §1
# [11] = molecular target: Man(a1-3)[Man(a1-6)]Man(a1-6)[Man(a1-3)]Man
# How it was run: as §1
# [12] = molecular target: Man(a1-3)[Man(a1-6)]Man(a1-6)[Man(a1-3)]Man(b1-4)GlcNAc(b1-4)GlcNAc
# How it was run: as §1
# [13] = molecular target: Man(a1-3)[Man(a1-6)]Man(b1-4)GlcNAc(b1-4)GlcNAc
# How it was run: as §1
# [14] = molecular target: Man(a1-3)[Man(a1-6)]Man(b1-4)GlcNAc(b1-4)[Fuc(a1-6)]GlcNAc
# How it was run: as §1
# Man(a1-6)Man = molecular target: Man(a1-6)Man
# How it was run: as §1
# Man(b1-4)GlcNAc = molecular target: Man(b1-4)GlcNAc
# How it was run: as §1
# MurNAc(b1-4)GlcNAc = molecular target: MurNAc(b1-4)GlcNAc
# How it was run: as §1
# Neu5Ac(a2-3)Gal = molecular target: Neu5Ac(a2-3)Gal
# How it was run: as §1
# [15] = molecular target: Neu5Ac(a2-3)Gal(b1-3)GalNAc
# How it was run: as §1
# [16] = molecular target: Neu5Ac(a2-3)Gal(b1-3)GalNAc(b1-3)Gal(a1-4)Gal(b1-4)Glc
# How it was run: as §1
# [17] = molecular target: Neu5Ac(a2-3)Gal(b1-3)GalNAc(b1-4)[Neu5Ac(a2-3)]Gal(b1-4)Glc
# How it was run: as §1
# [18] = molecular target: Neu5Ac(a2-3)Gal(b1-3)GalNAc(b1-4)[Neu5Ac(a2-8)Neu5Ac(a2-3)]Gal(b1-4)Glc
# How it was run: as §1
# [19] = molecular target: Neu5Ac(a2-3)Gal(b1-3)GalNAc6S
# How it was run: as §1
# [20] = molecular target: Neu5Ac(a2-3)Gal(b1-3)GlcNAc
# How it was run: as §1
# [21] = molecular target: Neu5Ac(a2-3)Gal(b1-3)GlcNAc(b1-2)Man
# How it was run: as §1
# [22] = molecular target: Neu5Ac(a2-3)Gal(b1-3)GlcNAc(b1-2)Man(a1-3)[GlcNAc(b1-4)][Neu5Ac(a2-3)Gal(b1-3)GlcNAc(b1-2)Man(a1-6)]Man(b1-4)GlcNAc(b1-4)GlcNAc
# How it was run: as §1
# [23] = molecular target: Neu5Ac(a2-3)Gal(b1-3)GlcNAc(b1-2)Man(a1-3)[Neu5Ac(a2-3)Gal(b1-3)GlcNAc(b1-2)Man(a1-6)]Man(b1-4)GlcNAc(b1-4)GlcNAc
# How it was run: as §1
# [24] = molecular target: Neu5Ac(a2-3)Gal(b1-3)GlcNAc(b1-3)Gal(b1-3)GlcNAc
# How it was run: as §1
# [25] = molecular target: Neu5Ac(a2-3)Gal(b1-3)GlcNAc(b1-3)Gal(b1-4)GlcNAc
# How it was run: as §1
# [26] = molecular target: Neu5Ac(a2-3)Gal(b1-3)GlcNAc(b1-3)GalNAc
# How it was run: as §1
# [27] = molecular target: Neu5Ac(a2-3)Gal(b1-3)GlcNAc(b1-4)Gal(b1-4)Glc
# How it was run: as §1
# [28] = molecular target: Neu5Ac(a2-3)Gal(b1-3)GlcNAc(b1-6)GalNAc
# How it was run: as §1
# [29] = molecular target: Neu5Ac(a2-3)Gal(b1-3)GlcNAc6S
# How it was run: as §1
binder,measurement,setting,value
B1,glycan array binding signal (z-score),Kdn(a2-3)Gal(b1-4)Glc,-0.105
same,glycan array binding signal (z-score),Kdn(a2-3)Gal(b1-4)GlcNAc,-0.123
same,glycan array binding signal (z-score),[1],-0.115
same,glycan array binding signal (z-score),Kdn(a2-6)Gal(b1-4)GlcNAc,-0.121
same,glycan array binding signal (z-score),[2],-0.113
same,glycan array binding signal (z-score),[3],-0.124
same,glycan array binding signal (z-score),Man(a1-2)Man(a1-3)Man,-0.133
same,glycan array binding signal (z-score),[4],-0.126
same,glycan array binding signal (z-score),[5],-0.099
same,glycan array binding signal (z-score),[6],-0.13
same,glycan array binding signal (z-score),[7],-0.129
same,glycan array binding signal (z-score),[8],-0.129
same,glycan array binding signal (z-score),[9],-0.126
same,glycan array binding signal (z-score),Man(a1-3)[Man(a1-6)]Man,-0.122
same,glycan array binding signal (z-score),[10],-0.129
same,glycan array binding signal (z-score),[11],-0.112
same,glycan array binding signal (z-score),[12],-0.104
same,glycan array binding signal (z-score),[13],-0.116
same,glycan array binding signal (z-score),[14],-0.124
same,glycan array binding signal (z-score),Man(a1-6)Man,-0.106
same,glycan array binding signal (z-score),Man(b1-4)GlcNAc,-0.12
same,glycan array binding signal (z-score),MurNAc(b1-4)GlcNAc,-0.122
same,glycan array binding signal (z-score),Neu5Ac(a2-3)Gal,-0.111
same,glycan array binding signal (z-score),[15],-0.132
same,glycan array binding signal (z-score),[16],-0.124
same,glycan array binding signal (z-score),[17],-0.116
same,glycan array binding signal (z-score),[18],-0.114
same,glycan array binding signal (z-score),[19],-0.125
same,glycan array binding signal (z-score),[20],-0.123
same,glycan array binding signal (z-score),[21],-0.128
same,glycan array binding signal (z-score),[22],-0.126
same,glycan array binding signal (z-score),[23],-0.091
same,glycan array binding signal (z-score),[24],-0.129
same,glycan array binding signal (z-score),[25],-0.131
same,glycan array binding signal (z-score),[26],-0.114
same,glycan array binding signal (z-score),[27],-0.123
same,glycan array binding signal (z-score),[28],-0.123
same,glycan array binding signal (z-score),[29],-0.119
